Measured values taken from the supplement of paper PMC7125110.
± gives the standard error. Variants at the background level are over-represented here.

B1: glmS ribozyme (parent)
chain: AUAAAAGCGCCAGAACUACAGAAAUGUAGUUGACGAGGAGGAGGUUUAUCGAAUUUUCGGCGGAUGCCUCCAAA

Tests used:
Details in all cases: with glucosamine-6-phosphate
glucosamine-6-phosphate [1] = variants of: B1; test: kcat; higher = faster cleavage; RNA array
In short: (§1)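 A hybridised Cy3 probe tracked barcoded ribozyme variants, transcribed in situ by E. coli RNA polymerase on sequenced MiSeq chips, at 37 °C. The variants received 40 μM to 10 mM glucosamine-6-phosphate in HEPES/KCl/Mg(OAc)2 buffer. kobs came from decay fits and kcat and KM from weighted Michaelis–Menten fits.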

glucosamine-6-phosphate [2] = variants of: B1; test: self-cleavage kobs at 40 uM GlcN6P; higher = faster cleavage; RNA array
In short: as §1

glucosamine-6-phosphate [3] = variants of: B1; test: self-cleavage kobs at 640 uM GlcN6P; higher = faster cleavage; RNA array
In short: as §1

glucosamine-6-phosphate [4] = variants of: B1; test: self-cleavage kobs at 10000 uM GlcN6P; higher = faster cleavage; RNA array
In short: as §1

glucosamine-6-phosphate [5] = variants of: B1; test: self-cleavage kobs at 2500 uM GlcN6P; higher = faster cleavage; RNA array
In short: as §1

glucosamine-6-phosphate [6] = variants of: B1; test: self-cleavage kobs at 160 uM GlcN6P; higher = faster cleavage; RNA array
In short: as §1

Row | Variant | kcat (glucosamine-6-phosphate [1]) [s⁻¹] | self-cleavage kobs at 40 uM GlcN6P (glucosamine-6-phosphate [2]) [s⁻¹] | self-cleavage kobs at 640 uM GlcN6P (glucosamine-6-phosphate [3]) [s⁻¹] | self-cleavage kobs at 10000 uM GlcN6P (glucosamine-6-phosphate [4]) [s⁻¹] | self-cleavage kobs at 2500 uM GlcN6P (glucosamine-6-phosphate [5]) [s⁻¹] | self-cleavage kobs at 160 uM GlcN6P (glucosamine-6-phosphate [6]) [s⁻¹]
1 | G29U C61U | < 1e-05 | < 1e-05 | < 1e-05 | < 1e-05 | – | –
2 | C16G C34G | < 1e-05 | – | – | < 1e-05 | – | –
3 | A6G G13U U69C | – | < 1e-05 | – | – | – | –
4 | G51U A64C | < 1e-05 | < 1e-05 | < 1e-05 | – | < 1e-05 | –
5 | A48G A52U | < 1e-05 | < 1e-05 | – | – | – | < 1e-05
6 | A6G G37A | – | < 1e-05 | – | – | – | < 1e-05
7 | G63U C70U | < 1e-05 | < 1e-05 | – | – | – | –
8 | A6G A33C A39C | < 1e-05 | – | < 1e-05 | – | – | –
9 | C34A C70A | < 1e-05 | – | – | – | – | < 1e-05
10 | A6U U46G C58A | – | < 1e-05 | – | – | – | –
11 | A6C A33U G60A | – | < 1e-05 | – | < 1e-05 | – | –
12 | A6C A39C G62U | – | < 1e-05 | < 1e-05 | < 1e-05 | < 1e-05 | –
13 | C61G C70A | < 1e-05 | – | – | < 1e-05 | – | –
14 | A6G U46C | – | < 1e-05 | < 1e-05 | – | – | < 1e-05
15 | G13U A36C C70U | < 1e-05 | – | – | < 1e-05 | – | –
16 | A6C G51U | – | < 1e-05 | < 1e-05 | < 1e-05 | – | < 1e-05
17 | C10G U45C U69C | < 1e-05 | – | < 1e-05 | – | – | –
18 | A36U G37U | < 1e-05 | – | – | – | – | –
19 | A6C C34U | – | < 1e-05 | – | – | – | –
20 | A6G A14C G62U G63U | – | < 1e-05 | – | – | – | –
21 | A6G G7A | – | < 1e-05 | < 1e-05 | < 1e-05 | < 1e-05 | < 1e-05
22 | A6U G62U | – | < 1e-05 | < 1e-05 | < 1e-05 | – | < 1e-05
23 | G13A A33U | < 1e-05 | < 1e-05 | – | – | – | –
24 | A6G C68G | – | < 1e-05 | < 1e-05 | – | – | –
25 | G38A C68U | < 1e-05 | < 1e-05 | < 1e-05 | – | – | < 1e-05

Row | Variant | kcat (glucosamine-6-phosphate [1]) [s⁻¹] | self-cleavage kobs at 40 uM GlcN6P (glucosamine-6-phosphate [2]) [s⁻¹] | self-cleavage kobs at 640 uM GlcN6P (glucosamine-6-phosphate [3]) [s⁻¹] | self-cleavage kobs at 10000 uM GlcN6P (glucosamine-6-phosphate [4]) [s⁻¹] | self-cleavage kobs at 2500 uM GlcN6P (glucosamine-6-phosphate [5]) [s⁻¹] | self-cleavage kobs at 160 uM GlcN6P (glucosamine-6-phosphate [6]) [s⁻¹]
26 | A6G U31C U55G | – | < 1e-05 | – | 5.16e-05 ± 1.9e-05 | 4.23e-05 ± 1.7e-05 | –
27 | A33G C61A | < 1e-05 | – | – | < 1e-05 | < 1e-05 | < 1e-05
28 | A6G G38A | – | < 1e-05 | – | < 1e-05 | < 1e-05 | –
29 | G51U U65G | < 1e-05 | < 1e-05 | < 1e-05 | < 1e-05 | – | < 1e-05
30 | G40C U57G | < 1e-05 | < 1e-05 | < 1e-05 | – | – | < 1e-05
31 | C8G A14C G37C C67G | < 1e-05 | < 1e-05 | < 1e-05 | – | – | –
32 | C10A G13U | < 1e-05 | – | < 1e-05 | – | – | –
33 | G32C A42C | < 1e-05 | – | < 1e-05 | – | – | < 1e-05
34 | G7A C61U | < 1e-05 | – | – | < 1e-05 | – | –
35 | A6C G9C G44U | – | < 1e-05 | – | – | – | –
36 | U57G G66C | < 1e-05 | – | – | – | – | –
37 | A14C C61A | < 1e-05 | < 1e-05 | – | – | – | –
38 | A6U G60C | – | < 1e-05 | < 1e-05 | < 1e-05 | – | –
39 | A6G A53G C58U | – | < 1e-05 | < 1e-05 | – | < 1e-05 | –
40 | A6G G13C G32U G41U G63U | – | < 1e-05 | – | – | – | –
41 | A6U A12G | < 1e-05 | – | – | – | – | –
42 | G35A G37U | < 1e-05 | – | < 1e-05 | – | – | –
43 | G37C C67G | < 1e-05 | – | – | – | – | –
44 | A6U A23C U30G | – | < 1e-05 | – | – | – | –
45 | A12C A36C | < 1e-05 | – | – | – | – | < 1e-05
46 | A6G G59U | – | < 1e-05 | < 1e-05 | < 1e-05 | < 1e-05 | < 1e-05
47 | U47C A48G | < 1e-05 | < 1e-05 | < 1e-05 | < 1e-05 | – | < 1e-05
48 | G7A A12G | – | < 1e-05 | < 1e-05 | < 1e-05 | < 1e-05 | –
49 | A12U G60C | < 1e-05 | – | – | – | – | < 1e-05
